In the RNAGym collection of RNA variant scans (doi:10.1093/nar/gkz1192):
The source gives no read counts; variants with many changes may rest on few reads.

B1: CPEB3 Ribozyme (parent)
chain: UAACAGGGGGCCACAGCAGAAGCGUUCACGUCGCAGCCCCUGUCAGAUUCUGGUGAAUCUGCGAAUUCUGCUGUAUAUCUC

Variants of: B1
Assay: self-cleavage, relative activity (ratio to wild type); higher = more cleavage; in vitro, sequencing
Method in brief: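 Relative activity compares each variant's cleaved/total read fraction with that of the unmutated ribozyme. To get these fractions, barcoded CPEB3 ribozyme libraries from rounds of error-prone PCR were transcribed with T7 RNA polymerase for 5 hours at 37°C and then given 15 min of DNase I treatment before EDTA was added. The RNAs were reverse transcribed with template switching and sequenced on Illumina, and DNA sequencing linked barcodes to variants. A minimum of 5 reads applied, and three batches were averaged.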

Row | Variant | self-cleavage
1 | UAACAGGGGGCCACAGCAGAAACGUUCAUGCCGCGGCCCCUGUCAGAUUCUGGUGAAUCUGCGAAUUCUGCUGUAUAUCUC [G22A C29U U31C A35G] | 0.04
2 | UAACAGGGGGCCACAGCAGAAACGUUCACGUCGCAGCCCCUGUCAGGUUCUGGUGAAUCUGCGAGUUCUGCUGUAUAUCUC [G22A A47G A65G] | 0.23
3 | UAACAGGGGGCCACAGCAGAAACGUUCACGUUGCAGCCCCUGUGAGAUUCUGGAGAUUCUGCGAAUUCUGCUGUAUAUCUC [G22A C32U C44G U54A A57U] | 0.04
4 | UAACAGGGGGCCACAGCAGAAACGUUCACGUCGCGGCCCCUGUCAGAUUCUGGUGGAUCUGCGAAUUCUGCUGUAUAUCUC [G22A A35G A56G] | 0.75
5 | UAACAGGGGGCCACAGCAGAUGCGUUCACGUCGCAGCCCCAGUCAGAUUUUGGUGAAUCUGCGAAUUCUGCUGUAUAUCCC [A21U U41A C50U U80C] | 0.13
6 | UAACAGGGGGCCACAGCAGAUGCGUUCACGUCGCAGCCCCAGUCAGAUUCUGGUGAAUCUGCGAGUUCCGCUGUAUAUCCC [A21U U41A A65G U69C U80C] | 0.17
7 | UAACAGGGGGCCACAGCAGAAACGUUCACGUCGCAGCCCCUGUCAGGUUCUGGUGAAUCUGCGGAUUCUGCCGUAUAUCUC [G22A A47G A64G U72C] | 0.05
8 | UAACAGGGGGCCACAGCAGAAACGUUCACGUCGCAGCCCUUGUCAGAUUCUGGUGAAUCUGCGAAUUCUGCCGUAUAUCUC [G22A C40U U72C] | 0.21
9 | UAACAGGGGGCCACAGCAGAAAUGUUCACGUCGCAGCCCCUGUCAGAUUCUGGUGAAUCUGCGAAUUCUGCUGUAUACCUC [G22A C23U U78C] | 0.09
10 | UAACAGGGGGCCACAGCAGAUGCGUCCACGUCGCAGCCCCUGUCAGAUUCUGGUGAAUGCGCGAAGUCAGCUGUAUAUCUC [A21U U26C C59G U60C U66G U69A] | 0.14
11 | UAACAGGGGGCCACAGCAGAAACGUUCUCGUCGCAACCCCUGUCAGAUUCUGGUGAAUCUGCGAACUCUGCUGUAUAUCUC [G22A A28U G36A U66C] | 0.07
12 | UAACAGGGGGCCACAGCAGAUGCGUUCACGUCGCAGCCCCUGUCAGAUUCCGGUGAAUCUGCGAAUUCCGCUGUAUACCUC [A21U U51C U69C U78C] | 0.24
13 | UAACAGGGGGCCACAGCAGAUGCGUUCACGACGCAGCCCCUGUCAGAUUCUGGUGAAUCUGUGAAUUCUGCUGUAUAUCUC [A21U U31A C62U] | 0.15
14 | UAACAGGGGGCCACAGCAGAUGCGUUCACGUCGCAGCCCCCGUCAGAUUCUGGUGAGUCUGAGAAUCCUGCUGUAUAUUUC [A21U U41C A57G C62A U67C C79U] | 0.06
15 | UAACAGGGGGCCACAGCAGAAACGUUCACGUCGCUGCCCCUGUCAGAUUCUGGUGAAUCUGCGGAUUCUGCUGUAGAUCUC [G22A A35U A64G U76G] | 0.01
16 | UAACAGGGGGCCACAGCAGAUGCGUCCACGUCGCAGCCCCCGUCAGACUCUGGUGUAUCUGCGAAUUCUGCUGUAUAUCUC [A21U U26C U41C U48C A56U] | 0.25
17 | UAACAGGGGGCCACAGCAGAUGCGUUCACGUCGCAGCCCCUGGCAGAUUCUGGUGAAUCUGCGGAUUCUGCUGUACAUCUC [A21U U43G A64G U76C] | 0.07

Row | Variant | self-cleavage
18 | UAACAGGGGGCCACAGCAGAAACGUUCACGUCGCGGCCCCUGUCAGAUUCUGGUGAAUCUGCGGAUUCUGCUGUAUAUCUC [G22A A35G A64G] | 0.35
19 | UAACAGGGGGCCACAGCAGAUGCGUUCACGUCGCAGCCCCUGUCAGAUUCUGGCGAAUCUGCGAAUUCUGCUGUAUAUCCC [A21U U54C U80C] | 0.44
20 | UAACAGGGGGCCACAGCAGAUGCGUCCACGUCGCAGCCCCUGUCAGAUUCUGGAGAAUCUGCGAAUUCUGCUGUAUAUCUC [A21U U26C U54A] | 0.26
21 | UAACAGGGGGCCACAGCAGAAACGUUCACGUCGCGGCCCCUGUCAGAUUCUGGUGAAUCUGCGAAUUCUGCCGUAUAUCUC [G22A A35G U72C] | 0.54
22 | UAACAGGGGGCCACAGCAGAUGCGUUCACGUCGCAGCCCCUGUCAGAUCCUGGUGAAUCUGCGAAUUCCGCUGUAUAUCUC [A21U U49C U69C] | 0.05
23 | UAACAGGGGGCCACAGCAGAAACGUUCACGUCGCAGCCCCUGUCAGGUUCUGGUGUAUCUGCGAAUUCUGCUGUAUAUCUC [G22A A47G A56U] | 0.21
24 | UAACAGGGGGCCACAGCAGAAACGUCCUCGUCGCAGCCCCUGCCGGAUUCUGGUGAAUCUGCGAAUUCUGCUGUAUAUCUC [G22A U26C A28U U43C A45G] | 0.19
25 | UAACAGGGGGCCACAGCAGAUGCGUUCACGUCGCAGCCCCCGGCAGAUUCUGGUGAGUCUGCGAAUUCUGCUGUAUAUCAC [A21U U41C U43G A57G U80A] | 0.05
26 | UAACAGGGGGCCACAGCAGAUGCGUUCACGACGCAGCCCCUGUCAGAUUCUGGUGAAUCUGCGAAUUAUGCUGUAUAUCUC [A21U U31A C68A] | 0.07
27 | UAACAGGGGGCCACAGCAGAUGCGUUCACGUCGCAGCCCCCGUCAGAUUCCGGUGAAUCUGUGAAUGCUGCUGUAUAUCUC [A21U U41C U51C C62U U67G] | 0.15
28 | UAACAGGGGGCCACAGCAGAAACGUUCACGUCGCAGCCCCUUUCUGAUACGGGUGAAUCCGCGAAUUCUGCUGAAUAUCUC [G22A G42U A45U U49A U51G U60C U74A] | 0.07
29 | UAACAGGGGGCCACAGCAGAUGCGUUCACGCCGCAGCCCCUGUCAGAUUCUGGUGAAUCAGCGAAUUCUGCUGUAUAUCUC [A21U U31C U60A] | 0.11
30 | UAACAGGGGGCCACAGCAGAUGCGUUCACGCCGCAGCCCCUGUCGGAUUCUGGUGAAUCUGCGUAUUCUUCUGUAUAUCUC [A21U U31C A45G A64U G70U] | 0.13
31 | UAACAGGGGGCCACAGCAGAAACGUUCACGUCGCUGCCCUUGUCAGAUUCUGGUGAAUCUGCGAAUUCUGCUGAAUAUCCC [G22A A35U C40U U74A U80C] | 0.13
32 | UAACAGGGGGCCACAGCAGAAACGUUCACGUCGCAGCCCCUGUCAGAUUCUGAUGAAUCAGCGAAUUCUGCUAUAUAUCUC [G22A G53A U60A G73A] | 0.14
33 | UAACAGGGGGCCACAGCAGAUGCGUUCACGUCGCAGCCCCCGUCAGAUUCUAGUGAAUCUGCGAAUUCCGCUGUAUAUCUC [A21U U41C G52A U69C] | 0.19
34 | UAACAGGGGGCCACAGCAGAUGCGUCCACGUCGCAGCCCCUGUCAGAUUCUGGUGGAUCUGCGAAUCCUGCUGUAUAUCUC [A21U U26C A56G U67C] | 0.13
